Laboratory results: patent US20250066446A1, “FUSION PROTEINS FOR THE TREATMENT OF CARDIOMETABOLIC DISEASES” (Shattuck Labs, Inc., priority 2022, published 2025)

B1: hGLP-1-Fc-GlP (Ag) fusion protein: GLP-1 fused to GlP(Ag) (amino acids 1-42) via a hinge-CH2-CH3 Fc domain derived from IgG1; SEQ ID NO: 93 (protein)
chain: MEFGLSWVFLVAIIKGVQCHGEGTFTSDVSSYLEEQAAKEFIAWLVKGRG[letters of human IgG1 Fc with changes left out]IEGRMDYAEGTFISDYSIAMDKIHQQDFVNWLLAQKGKKNDWKHNITQ
B2: hGLP-1-Fc-GlP (AntPro3) fusion protein: GLP-1 fused to GlP(AntPro3) (amino acids 1-42, E3P) via a hinge-CH2-CH3 Fc domain derived from IgG1; SEQ ID NO: 95 (protein)
chain: MEFGLSWVFLVAIIKGVQCHGEGTFTSDVSSYLEEQAAKEFIAWLVKGRG[letters of human IgG1 Fc with changes left out]IEGRMDYAPGTFISDYSIAMDKIHQQDFVNWLLAQKGKKNDWKHNITQ

Tests used:
[1] = Glucose tolerance test (GTT) model in HFD-fed mice; format: in vivo, mice (Male C57BL/6); conditions: i.v. treatment, 18 hours fast, 2 g/kg glucose, 15 min to 2 hours; for serum glucose following glucose administration: vs PBS control
Description: Cages were changed once, then changed once a week.
The mice administered the above treatment by i.v. injections. The mice were then fasted for 18 hours and administered a dose of 2 g/kg glucose by i.v. injections. Blood samples were drawn by tail clip bleeding at 15, 30 and 60 minutes post dosing and cardiac bleeding was used at 2 hours after glucose injection as end-point.

[2] = system: rat insulinoma INS-1 cells; test: in vitro glucose-stimulated insulin secretion (GSIS) in INS-1 cells; format: cell-based; conditions: 1 hour glucose, then 2 hour incubation; ELISA
Source text: X is a known inducer of GSIS.

[3] = Longer-term obesity model in HFD-fed mice; conditions: for blood glucose levels: Days 0, 1, 10 and 15; for blood glucose levels / average daily food intake: compared to the untreated mice; for weights of individual mice: FIG. 8B; for plasma insulin levels on Day 15: FIG. 8C right panel; for plasma insulin levels on Day 1: between 15 and 120 minutes after treatment; for liver weight / subcutaneous white adipose tissue (sWAT) weight: day 19 terminal necropsy, vs PBS control; for decrease in collagen staining in comparison with tirzepatide or dulaglutide: picrosirius red liver sections; for change in body weight: tail vein dosing Day 0, 4, 7, 10, 14, 18, weighed every 2 days; for tolerability, clinical observations: tail vein dosing Day 0 to Day 18; for collagen staining (fibrosis), picrosirius red liver sections / hepatocellular ballooning and steatosis, H&E liver histology: vs vehicle-treated mice
Description: Mice (Male C57BL/6) were of approximately 13 weeks of age were housed 4 mice per cage. Following 2 weeks of acclimatation, mice were introduced to 60% kcal HFD (Research Diets D12492). Cages were changed once, then changed once a week. Weekly body weights and non-fasted blood glucose were collected.
Mice were injected by tail vein with vehicle or the drugs on Day 0, Day 4, Day 7, Day 10, Day 14, and Day 18. Body weights were measured every 2 days. Change in body weight was calculated and plotted.
Cumulative food intake was measured between day 0 and 3, between day 4 and 7, between day 7 and day 11, and between day 11 and day 14, and represented as average daily food intake. For food consumption, remaining food was weighed on days 3, 8, and 15, and subtracted from the starting weight. This value was then normalized to the number of mice in the cage, and the number of days the mice had access to the food prior to weighing.
Blood glucose levels were measured on Days 0, 1, 10 and 15 and plotted.
On day 19 during terminal necropsy, liver and subcutaneous white adipose tissue were recovered weighed from treated animals.
To further analyze the changes in liver, histopathological analysis was conducted. Briefly, the liver tissue was stained with hematoxylin and eosin (H&E) and evaluated using standard techniques.

| Molecule | serum insulin following glucose administration [1] | serum glucose following glucose administration [1] | insulin in the culture supernatant (GSIS) [2] | blood glucose levels [3] | weights of individual mice [3] | plasma insulin levels on Day 15 [3] | plasma insulin levels on Day 1 [3] | average daily food intake [3] | liver weight [3] | subcutaneous white adipose tissue (sWAT) weight [3] | decrease in collagen staining in comparison with tirzepatide or dulaglutide [3] | change in body weight [3] | tolerability, clinical observations [3] | collagen staining (fibrosis), picrosirius red liver sections [3] | hepatocellular ballooning and steatosis, H&E liver histology [3] |
| --- | --- | --- | --- | --- | --- | --- | --- | --- | --- | --- | --- | --- | --- | --- | --- |
| B1 | rapid induction of insulin | much smaller increase in serum glucose | stimulated insulin production to a similar, if not greater magnitude than dulaglutide or tirzepatide | decrease in blood glucose | induced weight loss | significant decrease in the levels of insulin | rapid decrease in insulin levels | decrease in food intake | livers of control mice that received only PBS were much heavier | decreased | greater decrease in collagen staining compared to the livers from mice treated with tirzepatide or dulaglutide | progressive weight loss | well tolerated and no overt toxicities were noted | decrease in collagen staining | decrease in hepatocellular ballooning and steatosis |
| B2 | rapid induction of insulin | much smaller increase in serum glucose | – | decrease in blood glucose | induced weight loss | significant decrease in the levels of insulin | rapid decrease in insulin levels | decrease in food intake | livers of control mice that received only PBS were much heavier | decreased | greater decrease in collagen staining compared to the livers from mice treated with tirzepatide or dulaglutide | progressive weight loss | well tolerated and no overt toxicities were noted | decrease in collagen staining | decrease in hepatocellular ballooning and steatosis |
